# Reference: the supplement of paper PMC11417369
# The list shows a part of the results.
# Test system: PfHDP1 homeodomain (GST-tagged)
# Experiment: gcPBM binding intensity (ln(normalized median fluorescence intensity)); higher = stronger DNA binding
# In short: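 Each value is the highest Masliner-normalised natural-log median intensity across replicate spots of either orientation of a probe. The probes were primer-extended double-stranded 36-bp intergenic genomic sequences on an Agilent 4 × 180k array, alongside negative controls, exposed for 1 h to GST-tagged P. falciparum DNA-binding domains expressed in E. coli. Bound protein was picked up with Alexa488 anti-GST antibody and scanned at 488 nm.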
row,Sequence,gcPBM binding intensity (ln)
1,TAAAAAAATAAATATACACACATATATAAATATGTA [CACACA_site6641],6.18
2,TATGAATATCTATACACACACATATATATACTCACT [CACACA_site1597],6.82
3,CAAAGATATATAAACACACAAATATAACATATATAC [CACACA_site7395],6.63
4,TATATTATTATATATTGTACTTTTTATATTTGCATT [XGTACX_site2978],6.43
5,TACACTTGTAATTGCGTGCACGAAGGATATATATAT,10.4
6,AAAAAAAAAAAAAGGTGTACATGCAAAATAAATTCT [XGTACX_site4592],6.48
7,AAATAAATAAGAAACGCATGCATATATAATATATAA [TGCATGCA_site326],6.75
8,GTTATTTATAGACACACACACATGCATGCACATATA [CACACA_site6204],10.2
9,CATATATATTTGTTCACACACACACCCAAAAAAAAA [CACACA_site2476],6.8
10,TTTAAAATGGGACTTTGAAAAAAAAAAAAAAAAACA [TGCATGCA_negctrl_site111],6.1
11,GAAAAAGTTATAAATTGTACTAAATATTAAATATTG [XGTACX_site7890],6.24
12,ATATATATATATATTTGTACATATATACATAAAATT [XGTACX_site359],8.99
13,CACACCCACAGACACACACACACATATATATATATA [CACACA_site363],9.23
14,TATATATATATATATTGTACATAATGTATATATGTT [XGTACX_site3448],9.09
15,TATAGGTATGTATGTACACACAAAAAATGGAATATA [CACACA_site7704],7.2
16,CATATGTTCATCATAGCACACATATATAAATTACAA [CACACA_site9177],6.5
17,TTACACAAACAAATTATGGACACATAAGTAAAAGGA [CACACA_negctrl_site1622],6.97
18,TGAAAAAAAAAAAAAAAAAAAAGAAAAAAAAAAAAA [CACACA_negctrl_site709],5.61
19,TATAATTCATATGAAACACACATTTATTTTAATTAC [CACACA_site3686],6.47
20,GAAAAAAGAAAAAAAAGTACATATATTTAATAAGAC [XGTACX_site6912],6.71
21,TTATCCATAAAAAAGTGTACGCACTAAAATTGAAAA [XGTACX_site5460],6.68
22,TTTATTATCGTTCTCATACACACAAAATATACATAC [CACACA_site2642],6.89

row,Sequence,gcPBM binding intensity (ln)
1,TAGGCGTTTAATAAAAGTACCCACACATATATTATT [XGTACX_site1932],6.46
2,CATAAATTAATAGTCACACACGTATTTTTTATATAT [CACACA_site2526],6.16
3,AATTCAAATATAAATACACACACATAGCTACAAAAT [CACACA_site9386],7.07
4,ATTTAACAACTTCAAACACACAATATATATATATAT [CACACA_site2093],9.12
5,AAATATATATGTGGGGGTACTAATAAAAAAACCCCT [XGTACX_site2657],6.65
6,AATAAATAAGCACATACACACATACATACATACATA [CACACA_site6075],6.86
7,TTGTATTTTTAAATGACACACACATATATATATATA [CACACA_site8481],9.18
8,AAGTTATAAAAATAAAGTACAAAGTAGCTATTTTTT [XGTACX_site3144],5.93
9,ATTAAAACCAATTAAAAAAAATTTATAATGGAAGCA [TGCATGCA_negctrl_site273],6.16
10,GAGATAAAATAAAACACACACATATATATATATAAT [CACACA_site5246],6.81
11,AATGACTAAATTTAAACACACAAGGGGAGTTTACTT [CACACA_site918],6.04
12,TATTATTGTTGTTCATGTACACACTATAATAAAAGC [XGTACX_site8957],6.56
13,TATATATCATTTAAAACACACAAAAAAAAAAGTTAT [CACACA_site6191],6.9
14,ATAAATATAAAAAAATGTACATATAGTAATACATAC [XGTACX_site508],6.36
15,GAAATAAAAAGAAATGCATGTAATTTTTTTTTTTTT [TGCATGCA_site928],5.94
16,ATAAGTATAAGAATCAGTACACAGTTTCTACATACT [XGTACX_site5834],6.01
17,TTGCATTACGAACATACACACAGAATAACTGAAAAC [CACACA_site3025],7.06
18,TTCGATGAATATACAAGTACATATCCTTACGAACTG [XGTACX_site1650],5.89
19,TTTTTATTAAGACATGCATGGAAACGCACTATTTTA [TGCATGCA_site999],8.85
20,AATAAATAAATATATACACACATATATGTCTACATA [CACACA_site3158],6.63
21,TTTATATCATTTCTTAAAAAAAAGGAGGTAATAGAC [TGCATGCA_negctrl_site555],7.81
22,ATACGAAGTACGTACACACACTTATATGTTACTAAA [CACACA_site7812],6.52

row,Sequence,gcPBM binding intensity (ln)
1,TATATATGCATTAAATGATGTTCCTGTTTTTTAAAA [CACACA_negctrl_site1378],7.08
2,CACAAAATAAATTAAACACACAACATCATAGATGTA [CACACA_site4619],6.17
3,AATTTTTATTTGTACACACATACATATATATTATAT [CACACA_site993],6.88
4,ATATAATCAGCTTCTCTTTTATGCTAAAAAAAAAAA [CACACA_negctrl_site1310],6.07
5,ATAAATAATATAAATACACACTAAAAAAAATATATA [CACACA_site4456],6.84
6,TGTCATCATCTTAAATGTACAAAAAGGAAATATAAA [XGTACX_site1529],6.79
7,TTTTTATTTACACTTTTTATTTATATATTATGTACG [CACACA_negctrl_site158],6.79
8,TTTATATATTTCATAATACACACGAAAAAAAAAAAA [CACACA_site2970],6.56
9,TTAGTTTATTGGTACTGTACTTTTTTTTTCTCCATT [XGTACX_site8618],6.57
10,TTATTTAAAATTTTTATGCGTATATATATAGGAACA [CACACA_negctrl_site388],6.87
11,ATTTTTGAACGGTACAGTACAGAATTTAATTAACCC [XGTACX_site47],7.06
12,TATCATATATGAAGGTGTACGATTTATTATATAAAT [XGTACX_site7010],6.52
13,TTTATTTACTATTAAAGTACTAAATCATATAATTAT [XGTACX_site2580],6.06
14,TGTTTATACATCAGGTGTACGCAAAATAATTGTATG [XGTACX_site206],6.69
15,TTAACACATGCTTGGTCACACACGTATGCATATTTA [CACACA_site2127],6.77
16,TATACATATACATATACACACACACCCATAAATAAA [CACACA_site8372],7.36
17,TATTTGTAATATAACACACACAAAAAAAGACTCGGA [CACACA_site1681],6.81
18,TTTGTCAAATAATATTGTACTAAAAAATTTTGCCTT [XGTACX_site7485],6.26
19,ATACACACAGCCTAAACATGCATATAGAAAAAAGAA [TGCATGCA_site1028],7.3
20,AAGTTACAGAATATCACACATAAATTATCTGTATAT [CACACA_site5116],6.23
21,GTTAAGCAATATATATGTACTTATGGAATAGAAAAA [XGTACX_site3693],6.75
22,TCAATTAATTATTTTTGTACACAAGAATTACTGAAT [XGTACX_site6401],6.28

row,Sequence,gcPBM binding intensity (ln)
1,GTGTGATATAATTTTTTTAGAGCTTTATAATATTAT [CACACA_negctrl_site233],6.75
2,CAACCATTTGTAGGTAAACACACATTATTATTAATA [CACACA_site8842],6.31
3,TATGTTGATGATATTACACACCCAATGAGAAAAGGA [CACACA_site7060],7.14
4,ACTACGAATGGTAGAGTGCAGTCTGGAGAAAAGTAC [GTGCAC_site9681],7.64
5,CTTTTTTTTTTTTTTGCGCACTGTTTAAAGGGAAAT [GTGCAC_site9815],7.48
6,ATTATCTATCGTTTTTGTACTTACACCTTAATACAA [XGTACX_site7337],7.54
7,ATATATATATAATAAAGTACAAATTCTAAATGATAT [XGTACX_site570],8.58
8,TATCTTATGTCTGAAAGTACAAATTTTTTTCTACTT [XGTACX_site2208],5.95
9,TAATTTAGATATATAAAGAATTAAAGTTAACATTCT [CACACA_negctrl_site726],5.82
10,TTAAGAAAAAAAAAAAGTACACACATATAATATATA [XGTACX_site6268],6.59
11,TTTTTCAGATCCTATATAGTATCATATAAATTCCAT [CACACA_negctrl_site56],6.38
12,AAGATCGCATGAAATGAACACACATAAAAAAAATAT [CACACA_site9353],6.83
13,CGTTGGTATTAAAAGGTGCAATGAAATAATATATTA,8.16
14,TAAAATTTATAAACTACACACATATATATAGTAATA [CACACA_site3728],6.33
15,AATGTAACAACTTTTTGTACTTAAGAAATAATAAAT [XGTACX_site3310],6.31
16,TAAAAAATTATATTCACACACATACCCATATATATA [CACACA_site4458],6.83
17,AAATGAGATATAAAATGTACATATTGTAAGTAAACA [XGTACX_site1237],6.79
18,GGGATATATTATTATACACACATATATAAAAGCTTT [CACACA_site2445],7
19,TTAATTATATCAGGACGTACTAATATAAATATATAT [XGTACX_site8909],6.45
20,GTGCAAAATATTTTTACACACAAATTTTTACAACAG [CACACA_site3357],8.07
21,AAAAATAAATAAGACACACACAAAAAAAAAAAAAAA [CACACA_site1432],6.27
22,AAATATTTTTAGAGTGCATGTAATAAAAATATAATG [TGCATGCA_site19],7.57
